Screen size: about 310,000 compounds; about 14,000 (4.5%) showed an effect of 50% or more. Effects have a minus sign here. The list shows a part of the results.
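Also: peak tail current of the secondary pulse compared with the same well before compound.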

Chain of human ether-à-go-go-related gene (hERG) potassium channel (Q12809 whole entry, looked up): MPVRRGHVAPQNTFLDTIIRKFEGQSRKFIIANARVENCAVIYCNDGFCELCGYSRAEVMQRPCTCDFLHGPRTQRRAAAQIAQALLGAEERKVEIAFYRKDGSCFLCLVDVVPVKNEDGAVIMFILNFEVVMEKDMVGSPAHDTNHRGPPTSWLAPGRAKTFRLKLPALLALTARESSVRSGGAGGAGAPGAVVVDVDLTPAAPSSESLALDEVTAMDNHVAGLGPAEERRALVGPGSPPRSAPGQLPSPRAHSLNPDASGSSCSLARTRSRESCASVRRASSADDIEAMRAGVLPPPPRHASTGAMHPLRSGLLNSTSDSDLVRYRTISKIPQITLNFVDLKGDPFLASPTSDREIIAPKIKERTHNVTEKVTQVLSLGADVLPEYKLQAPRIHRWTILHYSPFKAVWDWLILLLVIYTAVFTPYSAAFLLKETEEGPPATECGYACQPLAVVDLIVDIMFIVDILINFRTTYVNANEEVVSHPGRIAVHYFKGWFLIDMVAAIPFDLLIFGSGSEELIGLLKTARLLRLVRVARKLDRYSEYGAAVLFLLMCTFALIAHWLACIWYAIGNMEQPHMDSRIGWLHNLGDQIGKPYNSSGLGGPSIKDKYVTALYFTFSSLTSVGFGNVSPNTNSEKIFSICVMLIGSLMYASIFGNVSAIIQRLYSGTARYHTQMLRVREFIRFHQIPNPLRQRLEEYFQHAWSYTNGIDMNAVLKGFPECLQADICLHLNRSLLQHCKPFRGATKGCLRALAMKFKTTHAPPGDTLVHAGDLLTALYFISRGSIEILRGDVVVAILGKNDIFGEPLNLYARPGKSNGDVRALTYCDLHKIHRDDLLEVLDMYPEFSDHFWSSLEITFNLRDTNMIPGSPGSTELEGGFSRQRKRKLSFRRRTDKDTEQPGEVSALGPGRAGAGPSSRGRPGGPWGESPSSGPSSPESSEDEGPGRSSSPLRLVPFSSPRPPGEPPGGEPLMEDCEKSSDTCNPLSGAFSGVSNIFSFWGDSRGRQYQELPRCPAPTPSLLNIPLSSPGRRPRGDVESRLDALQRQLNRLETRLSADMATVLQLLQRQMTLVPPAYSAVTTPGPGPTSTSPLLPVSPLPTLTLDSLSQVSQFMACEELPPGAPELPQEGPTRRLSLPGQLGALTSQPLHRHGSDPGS

This assay has as its target human ether-à-go-go-related gene (hERG) potassium channel (human, UniProt Q12809). The assay is described as follows: primary screen, population patch clamp on CHO cells stably expressing hERG.
On to `CCOc1cc(N2CCOCC2)c(OCC)cc1NCC(=O)N1CCN(Cc2ccccc2)CC1.Cl`, for which the “hERG current change (%, negative = inhibition) at 10uM” value is -24.5%.
Then `Cc1cc(NC(=O)c2cc([N+](=O)[O-])cc([N+](=O)[O-])c2)no1`, with 11.7%; and `Cc1noc(C)c1COc1ccc(C(=O)OC(C)C(=O)Nc2ccc(S(=O)(=O)N3CCOCC3)cc2)cc1` (stereo not drawn), with 10.9%.
Consider `O=C1CNC(=O)/C1=C\N1CCN(C(c2ccccc2)c2ccccc2)CC1`, for which the “hERG current change (%, negative = inhibition) at 10uM” value is 5.73%.
In the case of `Cc1cc(SCC(=O)NCCCN2CCCC2=O)nc2ccccc12` it was 5.37%; in that of `O=C(c1ccc(Cl)cc1)N1CCC(c2nc(-c3cccs3)no2)CC1`, -26.3%; in that of `CC(C)OCC1Cn2c(nc3c2c(=O)n(C)c(=O)n3C)O1` (stereo not drawn), 16.8%.
In the case of `CCCC(=O)N(C)c1nnc(-c2ccc(OC)cc2)s1`, the “hERG current change (%, negative = inhibition) at 10uM” value came to 11.3%.
In the case of `CN(C)CCOC(=O)c1cn(Cc2ccccc2)c2ccccc12.Cl` it was -59.1%; in that of `NS(=O)(=O)c1ccc(CCNC(=O)C2CCCN2C(=O)OCc2ccccc2)cc1` (stereo not drawn), 18.6%; in that of `Cc1cccc2cc(C#N)c(NCCCn3ccnc3)nc12`, -46.9%.
Take `O=C(O)CC1=C(O)C(=O)N(c2ccccc2)C1c1ccccc1` (stereo not drawn): the “hERG current change (%, negative = inhibition) at 10uM” value worked out at 17.4%.
For `COc1cccc(-c2nnc(SCC(N)=O)n2-c2ccc(Cl)cc2)c1`, the “hERG current change (%, negative = inhibition) at 10uM” value was -9.7%.
As to `O=C(Nc1ccc(NC(=O)c2ccccc2Cl)cc1)c1cccnc1`, the “hERG current change (%, negative = inhibition) at 10uM” value came out at 10.2%.
`Cc1[nH]c2ccccc2c1/C=C(\C#N)C(=O)NCC1CCCO1` (stereo not drawn): the “hERG current change (%, negative = inhibition) at 10uM” value was determined as 11.9%.
Then `CCOc1ccc(C(=O)N2CCN(c3cccc(Cl)c3)CC2)cc1`, with -73.7%; and `CN1C(=O)/C(=C/c2ccccc2OCc2ccccc2F)NC1=S`, with 16.1%; and `COc1ccc(NS(=O)(=O)c2ccc(C)c(NC(=O)c3ccc(C)c(S(=O)(=O)N4CCOCC4)c3)c2)cc1`, with 4.49%.
Turning to `CCOc1ccc(CNCCN2CCCC2)cc1.O=C(O)C(=O)O`, the “hERG current change (%, negative = inhibition) at 10uM” value is -63.9%.
Then `COc1ccccc1N1CCN(S(=O)(=O)c2ccc3c(c2)oc(=O)n3C)CC1`, with 26%.
Then `Cc1ccccc1S(=O)(=O)Nc1ncnc2sccc12`, with 0.813%; and `Cn1nnc(NCc2cc(Br)ccc2OCc2ccccc2F)n1`, with -13.2%; and `Cc1ccc(SCc2nc3ccccc3[nH]2)cc1`, with -15.4%.
Then `COc1ccc(-c2cn3c(C)c(C(=O)N4CCc5ccccc5C4)sc3n2)cc1`, with -31.9%.
Regarding `COc1ccc(Cn2c(=O)[nH]c3cc(C(=O)N4CCN(Cc5ccccc5)CC4)ccc3c2=O)cc1`, the “hERG current change (%, negative = inhibition) at 10uM” value was 1.77%.
Take `C=CCc1ccc(OCCn2cccc2C=O)c(OC)c1`: the “hERG current change (%, negative = inhibition) at 10uM” value was -24.4%.
Regarding `COCCCNC(=O)c1ccc(N(C)S(C)(=O)=O)cc1`, the “hERG current change (%, negative = inhibition) at 10uM” value was 11.7%.
Then `CCOC(=O)C1CN(S(=O)(=O)c2ccc(C)cc2)c2cc(S(=O)(=O)CC)ccc2O1` (stereo not drawn), with -41%.
As for `Cc1ccc(S(=O)(=O)N2CCSC2c2ccco2)cc1` (stereo not drawn), the “hERG current change (%, negative = inhibition) at 10uM” value is -7.66%.
In the case of `Cc1ccc(C)c(N(CC(=O)NC2CCCC2)C(=O)CCC(=O)Nc2cc(C)on2)c1` it was 4.94%; in that of `Cc1cc(C)cc(NC(=O)C2CCN(C(=O)c3cccs3)CC2)c1`, -12.4%.
As to `COc1ccc(Br)cc1C1Nc2cccc3cccc(c23)N1`, the “hERG current change (%, negative = inhibition) at 10uM” value is listed as 20.2%.
With `Cc1cc(C)nc(OC(C(=O)O)C(OCCc2ccccc2)(c2ccccc2)c2ccccc2)n1` (stereo not drawn), the “hERG current change (%, negative = inhibition) at 10uM” value was 16.3%.
In the case of `CCc1cccc(NC(=O)C2CCCN(c3ncnc4c3nc3n4CCCCC3)C2)c1` (stereo not drawn) it was -46.4%; in that of `Cc1cc(N2CCN(Cc3nc(-c4ccc(Cl)cc4)oc3C)CC2)cc(C)n1`, -68.8%; in that of `CCN1C(=O)CC(N2CCN(C(c3ccccc3)c3ccccc3)CC2)C1=O` (stereo not drawn), -5.86%.
Regarding `NC(=O)C1CCN(C(=O)COc2cccc3cccnc23)CC1`, the “hERG current change (%, negative = inhibition) at 10uM” value is 9.65%.
Take `COc1ccccc1C1CC(c2cccs2)=NN1C(=O)CCC(=O)O` (stereo not drawn): the “hERG current change (%, negative = inhibition) at 10uM” value is recorded as 16%.
In the case of `Cn1c(COc2ccc(Br)cc2)nnc1SC1CCc2ccccc2C1=O` (stereo not drawn) it was -26.6%; in that of `Cc1ccc(C2CC(=O)C(C=NCCN3CCN(C(=S)Nc4ccc(F)cc4)CC3)=C(O)C2)cc1` (stereo not drawn), -58.6%; in that of `N#Cc1c(N)n(C2CCCCC2)c2nc3ccccc3nc12`, 13.6%.
Take `CC1(C)CC(=O)C(C(C2=C(O)CC(C)(C)CC2=O)c2ccc(Cl)c([N+](=O)[O-])c2)C(=O)C1` (stereo not drawn): the “hERG current change (%, negative = inhibition) at 10uM” value worked out at 14.2%.
Then `N/C(CCS(=O)(=O)c1ccc(Cl)cc1)=N\OC(=O)c1ccccc1C(F)(F)F`, with -27.8%.
Regarding `C/C(N)=C(/C#N)C(=O)CSc1ccccc1F`, the “hERG current change (%, negative = inhibition) at 10uM” value is recorded as 16.9%.
As to `CCOC(=O)C1=C(C)N=c2s/c(=C3\C(=O)Nc4ccccc43)c(=O)n2C1c1ccc2c(c1)OCO2` (stereo not drawn), the “hERG current change (%, negative = inhibition) at 10uM” value is 5.4%.
In the case of `C=Cc1ccc(C2=CC(=O)C[C@H](c3ccc(OC)cc3)C2)cc1` it was 16.1%.
In the case of `Cc1ccc(NCc2nnc(SCCN3CCCCC3)n2CC2CCCO2)cc1Cl` (stereo not drawn), the “hERG current change (%, negative = inhibition) at 10uM” value is -92.4%.
As to `Cc1ccccc1Nc1n[nH]c(C)c1[N+](=O)[O-]`, the “hERG current change (%, negative = inhibition) at 10uM” value was determined as 0.936%.
As for `CC(=O)c1ccc(N2CCN(C(=O)c3cc4c(s3)CCCC4)CC2)cc1`, the “hERG current change (%, negative = inhibition) at 10uM” value is given as -23.5%.
Consider `O=C(C1=C[C@H](c2ccccc2)C[C@H](OCCCCO)O1)N1CCN(Cc2ccc3c(c2)OCO3)CC1`, for which the “hERG current change (%, negative = inhibition) at 10uM” value is listed as -41.8%.
For the molecule `O=C(CN1CC[C@@]2(O)CCCC[C@H]2[C@@H]1c1ccc(F)cc1)NCc1ccco1`, the “hERG current change (%, negative = inhibition) at 10uM” value is -15.5%.
As for `Cc1sc(N)c(C#N)c1C`, the “hERG current change (%, negative = inhibition) at 10uM” value turned out to be 5.26%.
In the case of `CC1CCCCN1C(=O)Cn1cc(C=C2C(=O)N(C)C(=O)N(C)C2=O)c2ccccc21` (stereo not drawn) it was 1.08%.
Regarding `Cc1ccc(NC(=O)c2cccs2)cc1NC(=O)c1ccco1`, the “hERG current change (%, negative = inhibition) at 10uM” value is recorded as -2.23%.
In the case of `CCOC(=O)c1c(C)[nH]c(C)c1S(=O)(=O)N1CCC(c2ccccc2)C1` (stereo not drawn) it was -0.09%; in that of `O=C(O)c1ccn(Cn2cnc3ccccc32)n1`, 6.64%; in that of `Nc1c(C(=O)OC2CCCCC2)c2nc3ccccc3nc2n1CC1CCCO1` (stereo not drawn), -63.7%.
`O=C1NC(=S)S/C1=C\c1ccc(SCc2ccco2)o1`: the “hERG current change (%, negative = inhibition) at 10uM” value is 0.894%.
In the case of `CC(=O)N1CCN(c2ccccc2NC(=O)COc2ccccc2C)CC1` it was -14%; in that of `COc1ccc(/C=C/C(=O)O)cc1S(=O)(=O)N1CCC(Cc2ccccc2)CC1`, 7.55%.
On to `CCn1cc(CN2CCC(n3nccc3NC(=O)c3cccc(F)c3)CC2)c(C)n1`, for which the “hERG current change (%, negative = inhibition) at 10uM” value is recorded as -2.72%.
Then `COc1ccc(/C(C)=N/N=C(N)N)c(OC)c1`, with -3.29%.
As for `COCCOC(=O)c1[nH]c2c(c1C)C(=O)CC(c1ccc(OC)cc1)C2` (stereo not drawn), the “hERG current change (%, negative = inhibition) at 10uM” value was found to be 3.95%.
In the case of `NS(=O)(=O)OCCCCCc1ccccc1` it was 3.87%.
For `Cc1ccnc2nc(C(=O)OCCOc3ccc(Cl)cc3)nn12`, the “hERG current change (%, negative = inhibition) at 10uM” value is reported as -56.2%.
In the case of `Cc1ccc(/C=C2/C(=O)NC(=O)N(Cc3ccc(F)cc3)C2=O)o1`, the “hERG current change (%, negative = inhibition) at 10uM” value is 19.6%.
In the case of `O=C(Nc1ccc2c(c1)C(=O)OC2)c1ccc(C(F)(F)F)cc1` it was 17.3%.
Then `COc1ccc(C(=O)NC(=S)N2CC(C)OC(C)C2)cc1OC` (stereo not drawn), with 8.99%.
On to `C=CCNC(=O)NC(=S)c1ccccc1`, for which the “hERG current change (%, negative = inhibition) at 10uM” value is -4.57%.
Then `COC(=O)c1sccc1NC(=O)Nc1cc(C)cc(C)c1`, with 12.1%; and `COCc1c(C(=O)NC2CCCCC2)sc2cccc(F)c12`, with -14.1%.
Turning to `Cn1cc(CNC(=O)CC2C(=O)NCCN2CC(C)(C)C)cn1` (stereo not drawn), the “hERG current change (%, negative = inhibition) at 10uM” value is on record as 18.9%.
In the case of `CN(Cc1cccs1)C(=O)CCc1ccc(S(=O)(=O)N2CCOCC2)cc1`, the “hERG current change (%, negative = inhibition) at 10uM” value was -6.63%.
Then `COc1ccc(C(C)=O)cc1COC(=O)c1cnc(C)cn1`, with 30.3%; and `O=C(O)CSC1CC(=O)N(c2ccc(Cl)cc2)C1=O` (stereo not drawn), with 12.8%; and `C/C(=N\NC(=S)Nc1ccccc1C)C1Cc2ccccc2C(=O)O1` (stereo not drawn), with -22.9%.
In the case of `Cc1cccc(OCC2Cn3c(nc4c3c(=O)[nH]c(=O)n4C)O2)c1` (stereo not drawn) it was 9.52%.
With `CCOC(=O)c1[nH]cnc1C(=O)Nc1ccccn1`, the “hERG current change (%, negative = inhibition) at 10uM” value was -4.06%.
Then `CCc1nn2c(N(C)CCO)cc(C)nc2c1-c1ccc(F)cc1`, with -14.9%.
Then `COc1ccc(CCn2c(N3CCN(C)CC3)nc3c2c(=O)[nH]c(=O)n3C)cc1`, with -3.78%.
Then `CCCCOc1ccc(-c2csc(N)n2)cc1[N+](=O)[O-]`, with 11.2%; and `CN(C)/N=C/c1ccc(P(c2ccc(/C=N/N(C)C)o2)c2ccc(/C=N/N(C)C)o2)o1`, with 7.19%.
Consider `CCCCn1c(N)c(N(CCC(C)C)C(=O)c2cccc(N3C(=O)c4ccccc4C3=O)c2)c(=O)[nH]c1=O`, for which the “hERG current change (%, negative = inhibition) at 10uM” value is -11%.
For `CCN1CCCC1CN(Cc1cc2ccc(C)cc2[nH]c1=O)C(=S)Nc1cccc(OC)c1` (stereo not drawn), the “hERG current change (%, negative = inhibition) at 10uM” value is on record as -70.7%.
Turning to `CCCCn1c(N)c(N(CCOC)C(=O)c2ccc(C)c(S(=O)(=O)N3CCCCC3)c2)c(=O)[nH]c1=O`, the “hERG current change (%, negative = inhibition) at 10uM” value is given as 32.7%.
In the case of `COc1ccc(CNC(=O)CSc2nnc(C(F)(F)F)n2C)cc1` it was 17.9%; in that of `CCc1nnc(NC(=O)CC(CN(C)S(=O)(=O)c2ccccc2)c2ccccc2)s1` (stereo not drawn), 29.8%.

The values above are taken from PMC4336329 (PLoS ONE, 2015).
